Source: the supplement of paper PMC10126150
Values marked as one replicate rest on one cluster of the flow cell; about a third of the high ones do not repeat.

Test system: ATP
Assay: switch fluorescence ratio, 500 uM ATP over buffer (Cy3 cluster intensity, sum of 5 cycles each) (fold (ratio)); higher = stronger signal-on switching upon ATP binding; sequences stand for … in TCGTCGGCAGCGTCAGATGTGTATAAGAGACAGTTTTTTTTTTTTTTTTTTTTTTTTT…TC
Conditions: aptamer strand: ATP DNA aptamer (quencher-CACCTGGGGGAGTATTGCGGAGGAAGG + anchor), 100 nM annealed; ATP concentration: 500 uM; one replicate
Procedure, shortened: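 After annealing to 100 nM quencher-labelled ATP aptamer, Cy3-labelled switching-strand clusters on a modified Illumina MiSeq flow-cell were imaged in selection buffer. A second image followed after 15 min with 500 uM ATP at 22 °C, and five such buffer/ATP cycles were done, each separated by NaOH stripping and re-annealing. The fluorescence ratio, averaged per switch-domain sequence, is summed target-cycle over summed buffer-cycle Cy3 intensity per cluster, with clusters outside 100-1000 RFU excluded.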
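Note: ATP exposure 15 min at 22 °C before imaging.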

| Sequence | switch fluorescence ratio |
| --- | --- |
| CGTCAGCGTT | 1.05 |
| GCGTGTTTCG | 0.958 |
| CAGCATAACT | 1.76 |
| GGGTCAAGTA | 1.03 |
| ATCTTGTACG | 1.06 |
| TCTGAAAGG | 0.965 |
| GTGAAGAATT | 0.976 |
| CTCGATAAA | 0.968 |
| TCTTGTCGCA | 1.05 |
| CTTGGATTGT | 0.965 |
| GATTGCTACA | 0.978 |
| TCGTTACTG | 0.892 |
| CGAAGCTACG | 1.75 |
| GTCCGAAAGT | 1.02 |
| GCTCGCTAGT | 1 |
| GTTATCAATG | 0.996 |
| AAGCTTTCGC | 0.995 |
| GACGCTGAGT | 1.09 |
| AACTAAATTG | 0.989 |
| CACCGGGGCG | 1.06 |
| GAAGATTAGC | 0.988 |
| GTGGAGTACG | 1 |
| GCTAGCTTCT | 1.02 |

| Sequence | switch fluorescence ratio |
| --- | --- |
| GTTCGCTACC | 1.38 |
| GTTGTTCCCT | 1.05 |
| GCTACTTGGC | 1.08 |
| ACGAGGCTAC | 4.47 |
| TATGTGAGAT | 0.953 |
| GGCTGATAGG | 1 |
| TAATATGGTC | 1.03 |
| ATTGGACAGC | 1.09 |
| CAGAGTTGGG | 0.968 |
| CCGTCGTCTT | 1.06 |
| GGTGTTGAAA | 0.966 |
| TCAGATTTAT | 1 |
| TTATAGATTC | 0.964 |
| ACGTTGGGGT | 1.02 |
| GCTGTCACAT | 1.07 |
| GGGAGGGCGA | 0.982 |
| GCGACAGGGA | 1.04 |
| ATGAACACAT | 1.02 |
| AACGTGGGCT | 0.997 |
| ATGGTTACGT | 0.962 |
| CTGCGTTAAC | 1.41 |
| GGTCTCGTCG | 0.995 |
| CTGGCATCAA | 1.04 |

| Sequence | switch fluorescence ratio |
| --- | --- |
| GTGTCATGTA | 0.995 |
| TTTATAATT | 1 |
| TCAAGAGATT | 0.978 |
| CTATTGATTG | 1 |
| ATCTGCGATT | 1.11 |
| TTTGATCATT | 0.999 |
| CACGGGCATT | 1.09 |
| TCTGTCGCAC | 5.17 |
| CAAATAATGT | 1.04 |
| AAGCCATAAA | 0.962 |
| CCTGATATTT | 1 |
| CCGTCGGGGG | 0.997 |
| GGTTACTGTG | 1.04 |
| CGGGCATGTT | 1.01 |
| GTTAGTGTTC | 1.1 |
| GCTATATTT | 0.988 |
| CGGAAAACTT | 1.09 |
| ATTCACGTTG | 1.05 |
| CGCGGGGCT | 1.16 |
| TAAAGTCCAT | 1.07 |
| TGGCTAGAAT | 0.992 |
| CGTCGTGAGT | 1.01 |
| TCGGTGCCA | 1.02 |

| Sequence | switch fluorescence ratio |
| --- | --- |
| AGCGTTGCTA | 0.961 |
| TCTTTGCTTA | 0.965 |
| CTTGGATTA | 0.997 |
| CGGGACCATG | 0.99 |
| TGGATCTAAG | 0.98 |
| AGGCGTAGAA | 1.04 |
| CAGTGTCTGG | 0.996 |
| GATTAATATT | 0.992 |
| GAAGCACGAA | 1.17 |
| TGTAATTTG | 1.04 |
| ACTCTGCGGA | 3.05 |
| CACATTAGGG | 1.05 |
| GGTTAGGCTC | 1.07 |
| ATAGGGACTC | 0.991 |
| GGCACGGCGA | 0.989 |
| ATTTTTCGTC | 1.05 |
| CAGAGTATTT | 0.991 |
| CGTTATCATG | 0.974 |
| ACGTCTGTAC | 2.22 |
| TGGATGCCAA | 0.981 |
| TTTCTCTATA | 1 |
| TTAAGTCATC | 0.997 |
| GATTTGTCCC | 0.957 |

| Sequence | switch fluorescence ratio |
| --- | --- |
| GGAGCCATAT | 1.57 |
| GGATGTGCAA | 1.06 |
| ATGAGAACC | 1 |
| GAGTACGACC | 1.09 |
| TCATGGTCGA | 0.984 |
| AAAGCAAGAT | 1.82 |
| GTTGTTTGGA | 0.984 |
| GCCCGGTGCA | 0.972 |
| GGCCTGACGA | 1.81 |
| TTATGGATTG | 1.04 |
| AGGGCCCCCG | 1.03 |
| ATAAGGGTGA | 0.959 |
| GCAAGTTT | 1.02 |
| ATATCGTCTC | 0.976 |
| CATTTTCACT | 1.02 |
| TATAACAAAA | 1.04 |
| TCTGTTGTCA | 0.97 |
| AAGGATGATT | 1.01 |
| GATAAACCTC | 1.2 |
| CTTAATCGGG | 0.956 |
| TGATGATGCA | 1.03 |
| GGAACAGGCA | 0.971 |
| TAATATACC | 1.05 |

| Sequence | switch fluorescence ratio |
| --- | --- |
| AGCACAGAAA | 1.01 |
| AAGGCGATAA | 1.35 |
| TCACGGAATA | 1.5 |
| TTAAGGACGC | 1.07 |
| CTTGGAGGAC | 1.07 |
| CAGAGGGATT | 1.34 |
| TCGTTACAAT | 1.04 |
| TTTATTCTCA | 0.996 |
| TTATCAGATA | 0.988 |
| TAATAGCCAA | 1 |
| ATCGGAGTGG | 1.02 |
| TACGAGGCAT | 3.3 |
| AAACCCAGCG | 1.2 |
| AGTAAAGCGT | 0.955 |
| CACAGGTAAG | 1.06 |
| ATCGACTATA | 1.07 |
| TGGGATGGCT | 1.08 |
| GGTAACAAGT | 1.1 |
| ATAATAACGC | 1.02 |
| AGCTGGTTT | 0.991 |
| AAGAATTTCC | 1.09 |
| TAACAAATGT | 0.987 |
| TCGGCCCAAA | 0.988 |

| Sequence | switch fluorescence ratio |
| --- | --- |
| CCTTTGCGTT | 0.997 |
| AAGTGTGGGA | 0.989 |
| CATGGAAGAT | 0.997 |
| ATGTTCCAGA | 0.979 |
| TAGACGTCGC | 1.04 |
| TAGGGTCAAG | 0.986 |
| AAGTGAGCTT | 1.03 |
| AGGTTTTCAT | 1.03 |
| GGGCACCTGG | 1 |
| TTTATATAGT | 0.946 |
| AACATTTGTT | 1.04 |
| GCTAAAGAGG | 1.01 |
| CGGAGAGCGG | 0.924 |
| CGGGCATTTT | 1.06 |
| GCTGGTGGGA | 0.992 |
| AAGTTGCCGG | 1.03 |
| GTAGCTAGAA | 1.33 |
| TTTTTACCTC | 0.956 |
| GCATGATTGG | 0.989 |
